# Some of the results follow. Viral Rep nickase domains cut single-stranded DNA in vitro (3 µM enzyme, 1 h, 37 °C); shown is the middle of each 90-letter strand. Uncut reads are compared with the no-enzyme pool on a log2 scale; strong cutting gives strongly negative numbers. There is no active / inactive call. Counts are relative to all reads, so uncut sequences can rise above 0 when many others are cut.
# Tested on: T1, Rep nickase domain of tomato golden mosaic virus
# T1 sequence (Rep 1-124, printed without the tag): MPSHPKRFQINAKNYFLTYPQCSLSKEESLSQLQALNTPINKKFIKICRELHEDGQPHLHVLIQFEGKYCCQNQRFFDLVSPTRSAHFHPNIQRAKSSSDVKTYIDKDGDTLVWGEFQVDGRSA
# Test: uncleaved DNA left, log2 of reads against the no-enzyme library (log2 ratio); higher = less cleavage (more negative = more Rep cleavage of the k-mer); sequences stand for … in CTCGTCCG…ACCGGAGA
# Protocol: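 A pool of 90-nt single-stranded DNAs with seven random bases just before the constant AC of the nick site (name = the seven bases) was cut by 3 µM recombinant His6-SUMO-tagged Rep nickase domain (300 nM DNA, 50 mM HEPES pH 8.0, 50 mM NaCl, 1 mM MnCl2, 1 h, 37 °C, three replicates). Uncut DNA was amplified and sequenced.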
row,Sequence,uncleaved DNA left (log2)
1,AAAGGTC,0.114
2,GAGAGGC,0.203
3,GCAGCAG,-0.00475
4,CGTTGGT,0.0509
5,GCCCATT,-0.3
6,AGGGTGG,-0.0331
7,GTCAATG,0.0526
8,TTGGTTT,-0.0152
9,GAACATA,-0.00237
10,TGACGGG,-0.0754
11,TTGATAA,0.103
12,TTGACGG,0.0921
13,CCTCTTA,-0.00752
14,GTTCCAG,-0.021
15,ATCGTTG,-0.0145
16,TGGAAAG,-0.0432
17,TGATGGT,0.103
18,TTTAGAC,0.00411
19,AATGACC,0.0833
20,CCATTAA,-0.114

row,Sequence,uncleaved DNA left (log2)
1,AGATCAC,-0.083
2,CGTATAC,0.0171
3,ACGCACT,-0.0511
4,CAATCGG,0.0117
5,CTCATCC,-0.0804
6,TAAGCAG,-0.134
7,CCGAAAA,0.0535
8,GAGCTTC,-0.228
9,CTCATCG,0.0175
10,AATAATC,0.0744
11,GTGACTC,0.0578
12,GTCGCAG,0.15
13,CAAAACT,-0.784
14,GTGAGAC,0.116
15,ACACTTT,-0.0178
16,GCTCAAA,-0.0578
17,TGGTGAC,0.00329
18,AAACACA,-0.101
19,TGGCTAA,-0.016
20,GGTATGT,-0.0335
